Laboratory results: PMC2682458 (Journal of molecular biology, 2009)

Target: ubiquitin-aldehyde (Ubal) (UniProt P0CG48 part only, C-terminal aldehyde)
Experiment: native gel or EMSA

Binder | binding result
hOtu1 C23A (enzyme) not shown | binds
hOtu1 C212A (enzyme) not shown | binds
